Laboratory results: PMC5836133
The other results are listed elsewhere or left out. At the low end of the ranking, values are background and their order means little.

System: T1, GST-NbGlk1(82-244)
T1 sequence: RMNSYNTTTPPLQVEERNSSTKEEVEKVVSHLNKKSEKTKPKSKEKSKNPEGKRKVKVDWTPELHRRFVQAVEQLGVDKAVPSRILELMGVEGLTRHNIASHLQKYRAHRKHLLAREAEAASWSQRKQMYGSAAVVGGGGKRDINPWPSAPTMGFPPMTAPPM
Test: protein-binding microarray;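 note: rank-based score ranging −0.5 to +0.5 with E above 0.45 taken as significant binding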
Conditions: NbGlk1 is a Golden2-like transcription factor of Nicotiana benthamiana; high values mean tight binding; most listed sequences are background and not binding sites; double strand, one strand shown

| Sequence | binding signal [E-score] |
| --- | --- |
| AACAGCAC | -0.258 |
| AGATCGCA | 0.396 |
| AATCTGCA | 0.414 |
| ACTCCCGG | -0.156 |
| AGTGGAGC | -0.109 |
| ACTCCGCG | -0.00392 |
| ATTTCTTG | 0.258 |
| ATATCCAC | 0.393 |
| AGATATTG | 0.375 |
| AGTGAGAA | -0.0221 |
| AAATCGAC | 0.341 |
| ACAGCGCG | 0.00111 |
| AAAAACGC | 0.0283 |
| AAAATAGG | 0.00995 |
| AGCCTAAG | -0.042 |
| AAACGGGC | -0.0361 |
| ATTGTTTG | 0.0616 |
| ATTGTCTG | 0.13 |
| AGGCTCGA | -0.199 |
| AAAAATTG | 0.0342 |
| ACGATCTG | 0.298 |
| ACATAGGG | -0.026 |

| Sequence | binding signal [E-score] |
| --- | --- |
| AATTACCC | 0.108 |
| CACTGCAG | -0.108 |
| AGGGACTA | -0.169 |
| AAGGGACA | -0.169 |
| AAAATGCA | 0.105 |
| CAGAAGGG | -0.212 |
| AAGGTCAC | -0.269 |
| CAGAGACG | -0.174 |
| ACGCGAGA | 0.0186 |
| ATTGCAAG | 0.143 |
| ATGAGGAC | -0.123 |
| AATGGACC | -0.272 |
| ACTCATCT | -0.122 |
| AAAGCCAA | -0.167 |
| AAATCTTA | 0.44 |
| AAAGTCGC | 0.0306 |
| ATGACAAA | 0.15 |
| AAACTGGC | -0.161 |
| ATTGTCAA | 0.162 |
| CACTGGGC | -0.24 |
| AAGTAGGT | -0.114 |
| AGCCCACC | -0.243 |

| Sequence | binding signal [E-score] |
| --- | --- |
| ACCATTGG | -0.183 |
| AGAACAAG | -0.0832 |
| ACCGAGCC | -0.364 |
| AGCTTCAG | -0.218 |
| ATCGGGCG | 0.0618 |
| AGACAATC | 0.319 |
| AGCTATCC | 0.00396 |
| ACGCCGAT | 0.0867 |
| AAGGATCT | 0.335 |
| ACGGGCAG | -0.18 |
| AGTCCTGC | -0.325 |
| AATCGGAC | 0.194 |
| AGTTGGTC | -0.161 |
| ACTGTGAG | -0.223 |
| ACGGTTAT | 0.00187 |
| ACGGCCCA | -0.315 |
| ACGGGTAA | -0.156 |
| AGAGCCCA | -0.25 |
| AACAGGGG | -0.165 |
| ATGCCTCC | -0.317 |
| AATGAACA | 0.0275 |
| ACGCGCAA | 0.149 |

| Sequence | binding signal [E-score] |
| --- | --- |
| ATGAGGGC | -0.18 |
| AAATTTCG | 0.332 |
| AACTATAC | -0.0928 |
| ACATCATC | -0.093 |
| ATTAGTCG | -0.0452 |
| ACACAGAT | 0.294 |
| AGAAAGAT | 0.185 |
| ATGCCGGA | 0.00648 |
| ACCCACTC | -0.272 |
| AGTACTTG | 0.0366 |
| AATCACCA | 0.26 |
| ACAGTACG | -0.113 |
| CACCATAC | 0.0253 |
| AGGTTATC | -0.0657 |
| AAGGTTTC | -0.0841 |
| ACAGTTCA | -0.09 |
| ACGGTAGA | -0.0107 |
| AGTCTGGG | -0.15 |
| AAAATAGT | 0.0268 |
| ACCTAGGG | -0.0916 |
| ACCCTGAG | -0.232 |
| CACGTACG | -0.118 |

| Sequence | binding signal [E-score] |
| --- | --- |
| AAAGTAGA | -0.0402 |
| AACCACCC | -0.115 |
| ACCTACTG | -0.127 |
| AACAATAT | 0.178 |
| AGGACCGA | -0.0887 |
| AGGTGCAT | -0.229 |
| AACTGTTG | -0.129 |
| ATACAGAT | 0.232 |
| ACAATACT | 0.11 |
| ATAATAGC | 0.0118 |
| ATACTACA | 0.146 |
| AACCCAGG | -0.109 |
| AACGTAGC | -0.14 |
| ACAAAGAT | 0.204 |
| AAAACAGT | 0.00413 |
| AATCTAAT | 0.412 |
| AGCCCTAT | -0.252 |
| ACACACTA | 0.0417 |
| ACATACGG | 0.048 |
| CACGCGCC | -0.113 |
| AAGACGGA | -0.135 |
